# Measurements as given in PubChem BioAssay AID1347073 (National Center for Advancing Translational Sciences (NCATS), 2019).
# About 200 (0.44%) of roughly 45,000 compounds were called active. Roughly 7% stayed inconclusive and do not appear here. The call rests on the fitted dose curve; in most records, active means well fitted activation curve with a large enough effect; inconclusive means small, poorly fitted or top-dose-only effect; inactive means no such curve, though single readings can be large or run the other way. This is one part of the list.
# Experiment: qHTS of TDP-43 Inhibitors: NCGC Sytravon Library Screen; further: 0% is about no effect; nearly all actives have a fitted effect of over 55% in size
# Details: yeast TDP-43 toxicity rescue, BacTiter-Glo growth, 24 h; series mostly up to 46.1 µM; growth rescue (activation): at the top concentration
# How it was run: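 TDP-43-expressing yeast, pregrown in raffinose, seeded at OD600 0.02 in galactose medium with compound for 24 hr at 30 deg C. Growth read by BacTiter-Glo luminescence, so rescue of toxicity appears as activation.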
row,Compound,growth rescue (activation)
1,OC[C@@H]1CN(Cc2ccc3c(c2)OCO3)C[C@H](n2cnc3c(NCc4ccc(F)cc4)ncnc32)O1,inactive: 6.22%
2,COc1cc(C)c(Cl)cc1S(=O)(=O)NCc1ccccn1,inactive: 6.34%
3,O=C(COC(=O)C12CC3CC(CC(C3)C1)C2)Nc1ccc([N+](=O)[O-])cc1Cl,inactive: 9.68%
4,CCOc1ccc(/C=N/N2C(C)CCCC2C)cc1 (stereo not given),inactive: -6.78%
5,CC(=O)C1=C(O)C(=O)N(c2ccc(Br)cn2)C1c1ccccc1F (stereo not given),inactive: 8.15%
6,C/C(N)=C(/C#N)C(=O)COC(=O)C(NS(=O)(=O)c1ccc(Cl)cc1)C(C)O (stereo not given),inactive: -2.04%
7,FC(F)(F)c1cccc(Cc2noc(CN3CCCC3)n2)c1,inactive: 6.64%
8,COc1ccc(/C=C(\NC(=O)c2ccccc2)C(=O)NCCN2CCOCC2)cc1,inactive: -21%
9,CCOc1ccc(CNC(=O)C2CCN(c3nnc(-n4c(C)ccc4C)s3)CC2)cc1,inactive: 10.2%
10,CC(C)NC(=O)c1nn2c(C(F)(F)F)cc(-c3ccco3)nc2c1Cl,inactive: 7.57%
11,Oc1ccc(/C=N/Nc2ncc(Br)cn2)c(O)c1,inactive: 1.26%
12,O=C(Nc1cccc(S(=O)(=O)Nc2ccc(Cl)cc2)c1)c1ccc2c(c1)OCCO2,inactive: 8.16%
13,COc1cn(-c2ccccc2)nc1C(=O)Nc1ccc(C)cc1Cl,inactive: 16.6%
14,COc1ccc(S(=O)(=O)N2CCC(NC(=O)C(Cc3cccc(OC)c3OC)NC(C)=O)CC2)cc1 (stereo not given),inactive: 9.27%
15,CCOC(=O)N1CCN(C(=O)C2CCN(c3ncnc4c3sc3cccc(F)c34)CC2)CC1,inactive: 5.52%
16,COC(=O)c1cccc2c1NC(=O)C2=O,inactive: -1.37%
17,O=[N+]([O-])c1ccc(N2CCOCC2)cn1,inactive: -7.45%
18,N#C/C(=C/c1ccncc1)c1nc2ccccc2c(=O)[nH]1,inactive: 19.6%
19,CC(NC(=S)Nc1ccccc1OC(F)F)C(C)(C)C (stereo not given),inactive: 15.1%
20,OCC1(Cc2ccccc2)CCCN(Cc2c[nH]c3ccccc23)C1 (stereo not given),inactive: 11.8%
21,Cc1ccc(-c2cc(C(=O)NCCCN3CCCC3)c3ccccc3n2)cc1C,inactive: -11.1%
22,CC1SC(c2ccc(F)cc2)NC1=O (stereo not given),inactive: 6.92%
23,CC(C)c1ccc(NC(=O)CCCN2C(=S)NC(C)(C)CC2C)cc1 (stereo not given),inactive: 26%
24,C=CCOn1c(-n2nc(C)cc2C)nc2ccccc2c1=O,inactive: -6.02%

row,Compound,growth rescue (activation)
1,COCc1c(C(=O)NC2CCCCCC2)oc2ccccc12,inactive: 19%
2,CCOC(=O)c1c(-c2ccc(C)cc2)csc1NC(=O)c1cc(=O)c2cc(C)ccc2o1,inactive: -12.4%
3,C=CCNc1nc(N)c(C(=C(C#N)C#N)c2ccccc2)s1,inactive: 10.3%
4,O=C1CC(C(=O)N2CCc3ccccc32)CN1c1ccc(F)cc1 (stereo not given),inactive: -19.1%
5,NS(=O)(=O)c1ccc2nc(NC(=O)Nc3ccc(F)cc3)sc2c1,inactive: 9.42%
6,CCN(CC)C(=O)C(=O)N/N=C/c1cccs1,inactive: 2.38%
7,COc1cc(NC(=O)/C=C/c2ccccc2[N+](=O)[O-])cc(OC)c1,inactive: 0.0816%
8,O=C(CN(CCO)c1ccccc1)Nc1cccc(S(=O)(=O)N2CCCC2)c1,inactive: -4.64%
9,CSc1ccc(Cl)c(C(=O)Nc2ccc(C)cn2)c1,inactive: 22.7%
10,O=C(N/N=C/c1ccc(Br)s1)c1cccs1,inactive: -15.9%
11,O=C(O)C1=NN(c2ccccc2)C(=O)C1,inactive: 3.34%
12,Cc1ccc2c(c1)N(CC(=O)N1CCC(O)CC1)C(=O)CO2,inactive: 2.44%
13,O=C(CCc1ccccc1)NNC(=O)Nc1ccccc1,inactive: 2.41%
14,CCn1c(SCC(=O)NNC(=S)Nc2ccc(C)cc2)nnc1-c1ccc(Cl)cc1,inactive: 2.29%
15,CN(C)CC(O)COc1cccc(OCC(O)CN(C)C)c1 (stereo not given),inactive: 19.8%
16,N=c1n(CC(=O)c2ccc([N+](=O)[O-])cc2)c2ccccc2n1Cc1ccccc1Cl,inactive: -14.1%
17,Cc1cc(C)cc(NC(=O)c2cc(=O)c3ccccc3o2)c1,inactive: 9.03%
18,COCCNC(=O)C1CC(=O)N(c2ccc(OC)cc2)C1c1ccc(OC)cc1 (stereo not given),inactive: 12.5%
19,CCSC1(SCC)N=C(N)C2(C#N)C(c3ccccc3)NC(C)=CC12C#N (stereo not given),inactive: 13.7%
20,O=C(NC1CC1)c1ccc(C2SCC(=O)N2Cc2ccccc2)cc1 (stereo not given),inactive: -6.75%
21,CCc1nc(NCCCn2ccnc2)c2oc3ccccc3c2n1,inactive: -24%
22,COc1ccc(-c2cc(NC(C)=O)c3ncc(-c4ccccc4)n3c2)cc1OC,inactive: 3.78%
23,COc1ccc(OC)c(CCNC(=O)CN2C(=O)CCSc3ccccc32)c1,inactive: 2.9%
24,CCNS(=O)(=O)c1ccc(NC(=O)CC(C)c2ccccc2)cc1 (stereo not given),inactive: -15.1%

row,Compound,growth rescue (activation)
1,COc1cccc(-n2c(Cc3cc(=O)[nH]c(=O)[nH]3)nnc2SCC(=O)N2CCC(C)CC2)c1,inactive: 18%
2,O=C(CCSCc1ccccc1)Nc1ccc2c(c1)OCCO2,inactive: 16.9%
3,CCOc1ccc(N2CC(C(=O)NC3CCCCCC3)CC2=O)cc1 (stereo not given),inactive: 10.6%
4,Cc1ccc(S(=O)(=O)N2CC(C(=O)O)Oc3ccccc32)cc1 (stereo not given),inactive: 9.7%
5,COc1ccccc1CNC(=O)COC(=O)c1ccncc1,inactive: 8.18%
6,C=C(C)C1CC=C(C)/C(=N/NC(=O)CCC(=O)Nc2ccccc2Cl)C1 (stereo not given),inactive: -24.1%
7,CN(C)c1cccc(C(=O)OC(C(=O)Nc2ccc(Cl)cc2C(F)(F)F)c2ccccc2)c1 (stereo not given),inactive: 9.24%
8,O=C(CN1C(=O)NC2(CCCC2)C1=O)Nc1ccccc1C(F)(F)F,inactive: 8.11%
9,CCCn1nc(C(=O)Nc2cc(S(=O)(=O)Nc3ccc(OC)cc3)ccc2O)c2ccccc2c1=O,inactive: 18.8%
10,CCc1nc2c(OCc3cccc(Cl)c3)cccn2c1N(C)C(=O)Nc1ccccc1OC,inactive: 11.5%
11,Cc1cccc(C(C)C)c1NC(=O)Cn1c(=O)oc2cc(S(=O)(=O)N3CCCC3)ccc21,inactive: 4.15%
12,CC(C)c1ccc(OCC(=O)NCCO)cc1,inactive: 11.9%
13,CC(=O)N/N=C/c1cc(C(C)(C)C)cc(/C=N/NC(C)=O)c1O,inactive: -21.3%
14,O=C(COC(=O)/C=C/c1ccccc1)NCc1ccc(Cl)cc1,inactive: 17.3%
15,CCOC(=O)C1=C(O)/C(=C\c2sccc2C)N=C1C,inactive: 2.29%
16,O=C(CN1CCN(c2ccc(O)cc2)CC1)NC(=O)NCc1ccco1,inactive: -5.39%
17,CCOc1ccc(/C=N/n2nnnc2N)cc1O,inactive: 20.1%
18,COC(=O)c1ccc(C(C(=O)NC2CCCCC2)N(CCc2ccccc2)C(=O)Cc2cccs2)cc1 (stereo not given),inactive: 7.66%
19,COc1cc(C(=O)Nc2nc3ccccc3[nH]2)ccc1OC(F)F,inactive: -3.4%
20,CCOC(=O)CNC(=O)Cn1c(C)cc2ccccc2c1=O,inactive: 29.4%
21,COCC(=O)n1nc(-c2ccco2)nc1NCc1ccccc1Cl,inactive: 15.9%
22,CN(C)CCCNC(=S)NCC(c1ccc(Cl)cc1Cl)c1c[nH]c2ccccc12 (stereo not given),inactive: 18.2%
